The values below come from publication PMC10507807, “De novo design of a stapled peptide targeting SARS-CoV-2 spike protein receptor-binding domain” (RSC Medicinal Chemistry, 2023).

This test deals with biotinylated recombinant SARS-CoV-2 spike protein RBD (Severe acute respiratory syndrome coronavirus 2, UniProt P0DTC2). The experiment in a line: Bio-layer interferometry, spike protein RBD. The format is binding. The settings on record: BLI, FortéBio BLItz; RBD on SAX biosensor; pep39 120, 48, 24, 4.8, 0.48 μM; PBS; association 120 s, dissociation 120 s; global fit 1:1, BLItz Pro 1.1; read-out: KD (dissociation constant). (Biolayer interferometry detects binding as a change in optical thickness at a sensor tip.)

Molecules are shown by their SMILES. Starred links: 1 amine or outer side, 2 acyl side, 3 side chain; linkers in the order of their positions; H or OH if unused. Positions of bridges follow the written chain, without caps; N, C: chain ends. Non-standard residues stand in square brackets, D forms with d. Residues, ends and D or L forms follow the SMILES beside them. X1 = C[C@@](CC=[*:3])(N[*:1])C(=O)[*:2]

By Kd is commonly meant the free concentration of one partner at which half of the binding sites on the other are occupied at equilibrium, for simple one-to-one binding. For the molecule `CSCC[C@@H]1NC(=O)[C@H](CC(N)=O)NC(=O)[C@@H]2CC(=O)NCCCC[C@H](NC(=O)[C@H](Cc3c[nH]c4ccccc34)NC(=O)[C@@H](NC(=O)[C@H](CCCCN)NC(=O)[C@H](Cc3ccc(O)cc3)NC(=O)[C@H](CC(C)C)NC(=O)[C@H](Cc3c[nH]c4ccccc34)NC(=O)[C@H](CCC(=O)O)NC(=O)[C@@H](NC(=O)CNC(C)=O)[C@@H](C)O)C(C)C)C(=O)N[C@@H](C)C(=O)N[C@@H](Cc3ccccc3)C(=O)N[C@@](C)(C/C=C/C[C@@](C)(C(=O)O)NC1=O)C(=O)N2` [pep39] (Ac-GTEWLYKVWKAF[X1]DNM[X1]-OH; lactam 10-14; staple (E) 13-17), the Kd came out at 570 ± 50 nM.
